From article PMC12136788 come the findings set out here.

B1: chr15:64682558:64682659:+|3pUTR|ENSG00000180357|unk|total|mutant (ssRNA)
RNA: GGGAGUUCUACAGUCCGACGAUCCACACUGGUCUUGCCUCUUCUUUUCCACUGCUUGGCUCUUAAGCCUCAGGCAGAUAAACCCGUAUUCCCCCCAGCUUGGGGAACCUUGGAGUCUGCCAGGUCACCUCCGGGCAAGGCCCACAACAGAGGAUUGAGCAUCA
B2: chr2:190062223:190062596:-|CDS|ENSG00000138379|control|control|control (ssRNA)
RNA: GGGAGUUCUACAGUCCGACGAUCGGAAAAAGAGGGGCUGUGUAAUGCAUGUACUUGGAGACAAAACACUAAAUCUUCAAGAAUAGAAGCCAUUAAGAUACAAAUCCUCAGUAAACUUCGUCUGGAAACAGCUCCUAACAUCAGCAACAGAGGAUUGAGCAUCA
B3: chr2:73958838:73958951:+|3pUTR|ENSG00000114956|unk|FALSE|unique (ssRNA)
RNA: GGGAGUUCUACAGUCCGACGAUCCCAGCCCCUCUCAUCCCUGGAGCACUCUGCCGCUCAAGAGCUGGUUUGUUAAUUAUUGUUAGACUUUGCCAUUGUUUUCUUUUGUACCUGAAGCAUUUUGAAAAUAAAGUUUACUUAAGUCAACAGAGGAUUGAGCAUCA
B4: chr3:13816257:13818943:-|three_prime_utr|ENSG00000154764|control|control|control (ssRNA)
RNA: GGGAGUUCUACAGUCCGACGAUCGAAUUCUUCCACCUCGUCGGGAUCCGUUUUCUGCAAUCAAAGUGGACUGCUUGCUUUCCUAGCAGGAUGAUUUUGUUGCUAGGACAAGGAGCCGUGUAGAAGUGUACAUAACUAUUCUUUCAACAGAGGAUUGAGCAUCA
B5: chr20:45097661:45098695:-|CDS|ENSG00000124134|control|control|control (ssRNA)
RNA: GGGAGUUCUACAGUCCGACGAUCGCACGUGCUCGACGAGCUGUGCGUCUUCGCCUUUGGCCAGGAGGCCGACUACUGGGGCCUAGGCGAGAACGCGCUUGCCGCGUGCUGCCGCGCGCGCUACCUGGAGAGGCGGCUGACCCACAACAGAGGAUUGAGCAUCA
B6: chr12:100626600:100626701:+|3pUTR|ENSG00000139354|unk|FALSE|unique (ssRNA)
RNA: GGGAGUUCUACAGUCCGACGAUCAAUUUUAUCAUCAAGUAUUCCCUUAUAAAACCAAGUAACACUUCUUUAUCAGUAACUUUUAGAACUUAAAAGAAAGCAAAAAGUAAAUGGAAUUGUAGGCAAUUUAUGAAUCCUAGUAGACAACAGAGGAUUGAGCAUCA
B7: ENSG00000107863:be:win_551|CDS|ENSG00000107863|bound_else_gene|NA|bound_elsewhere_windowed (ssRNA)
RNA: GGGAGUUCUACAGUCCGACGAUCAAGGCAACGAAGCUUAUAGCGGCAAUGCCCGCAAUAUACCUGAACCUCCACCAAUCUGCUAUCCCUGGCUGCCAUCUGCCCCAUCAGCCAUGGCACAGCCAGUUGAAAUAUCUCCUCCUGCAACAGAGGAUUGAGCAUCA
B8: chr3:98585547:98585662:-|CDS|ENSG00000080819|unk|total|mutant (ssRNA)
RNA: GGGAGUUCUACAGUCCGACGAUCUCCAUUUGAUCCCUGGUUUGGCGCCGCUGUGUUUUCCAGGUGUGAUGAUUACUUCUUUACCGCCCAUCGUGGAGAACGGCGGGGCAUUGGUGGUAUCUUUUUUGAUGAUCUUGACUCUCCCAACAGAGGAUUGAGCAUCA
B9: ENSG00000107863:be:win_2351|CDS|ENSG00000107863|bound_else_gene|NA|bound_elsewhere_windowed (ssRNA)
RNA: GGGAGUUCUACAGUCCGACGAUCAAAGAAUGGAGGAAAGAAAAGCCUCGAGUACCAGUCCGCCUGGCGAUUCUUUGGCUUCCAUCCCAUUUAUAGAUGAACCAACUAGCCCUAGCAUUGAUCAUGAUAUUGCACAUAUCCCUGCAACAGAGGAUUGAGCAUCA
B10: chr9:124811826:124811928:+|3pUTR|ENSG00000185585|msi1|total|mutant (ssRNA)
RNA: GGGAGUUCUACAGUCCGACGAUCAAGAAAUUUUCCCGCCCAACUCCCUGUUUCAUGAAAGAGAAAAGAGGCUCAGAAAAGUUCCGAGAGCAGCUCAGUGUCACACUGGGAGCUGGGCACAGCCGAUCUCCUUCCAGAAGGGUUCAACAGAGGAUUGAGCAUCA
B11: chr16:75111859:75112521:-|three_prime_utr|ENSG00000166816|control|control|control (ssRNA)
RNA: GGGAGUUCUACAGUCCGACGAUCGCUGCAGGAGGAGGUGGGCGCCGUGGGCGUGGAGACCAUGCGGCAGCUCAAGGCCGUGCUAGACCCCCAAGGCCUCAUGAAUCCAGGCAAAGUGCUGUGAAGGGGGUCUGAGCACUUAGCCAACAGAGGAUUGAGCAUCA
B12: chr3:160432293:160432405:+|CDS|ENSG00000113810|unk|total|mutant (ssRNA)
RNA: GGGAGUUCUACAGUCCGACGAUCGAAUUGUAUUUGCAACGGGCCGCAGAAUUGGACAAAAUUACUUAUGAAAGAGACAGUUUCCGACAGGCAUAUGAAGAUCUUCGGAAACAAAGGCUUAAUGAAUUUAUGGCAGGUUUUUAUCAACAGAGGAUUGAGCAUCA
B13: chr2:32508095:32508220:+|CDS|ENSG00000115760|unk|FALSE|unique (ssRNA)
RNA: GGGAGUUCUACAGUCCGACGAUCAGCCGAAGUAGCUUCUGCUGUCUGCCUUAGACUACAUCGUCCACGGGAUGCCAGCACAUUAGGCCUUUCACAAAUUAAAUUAUUGGGGCUCACUGCUUUUGGUACCACCUCUUCUGCAACCAACAGAGGAUUGAGCAUCA
B14: chr1:16124349:16124452:-|3pUTR|ENSG00000142627|msi1|FALSE|unique (ssRNA)
RNA: GGGAGUUCUACAGUCCGACGAUCUUUGUUUUGUUGGACAUUUUUUUCGAAUCUUAAUUUAUUAUUUUUUUUAUAUUUAUUGUUAGAAAAUGACUUAUUUCUGCUCUGGAAUAAAGUUGCAGAUGAUUCAAACCGAUCUUGGCUCAACAGAGGAUUGAGCAUCA

This is one part of the list.

The assay addresses MSI1 full-length (mouse, UniProt Q61474 1-362). Kind of assay: nsRBNS (natural sequence RNA bind-n-seq); RBNS binding buffer (assumed for nsRBNS): 25 mM Tris pH 7.5, 150 mM KCl, 3 mM MgCl2, 0.01% Triton X-100, 500 ug/ml BSA, 20 U/ml SUPERase-In, 4 C; UNK is unkempt and MSI1 is Musashi-1; names of the RNAs are library labels; protein concentration not given here; high values mean tight binding.
Sequence of UniProt Q61474 (Q61474 whole entry): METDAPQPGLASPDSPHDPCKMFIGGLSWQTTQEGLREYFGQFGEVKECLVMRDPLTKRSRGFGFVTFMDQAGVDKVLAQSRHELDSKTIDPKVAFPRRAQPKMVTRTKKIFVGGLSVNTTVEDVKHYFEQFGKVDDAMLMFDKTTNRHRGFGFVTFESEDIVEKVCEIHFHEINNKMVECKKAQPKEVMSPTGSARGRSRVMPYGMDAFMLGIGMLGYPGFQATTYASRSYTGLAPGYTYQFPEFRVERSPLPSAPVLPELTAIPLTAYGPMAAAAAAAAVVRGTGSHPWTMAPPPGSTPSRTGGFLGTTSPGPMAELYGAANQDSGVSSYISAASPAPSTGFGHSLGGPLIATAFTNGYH
In turn, B1 yielded a binding signal of 0.364 enrichment R. Turning to B2, the binding signal was 0.318 enrichment R. B3 returned a binding signal of 1.4 enrichment R.

In turn, B4 yielded a binding signal of 0.286 enrichment R. In the case of B5, the binding signal came out at 0.341 enrichment R. B6 had a binding signal of 11.4 enrichment R. B7 returned a binding signal of 0.51 enrichment R. For B8 the value was 0.293 enrichment R. The value for B9 was 2.35 enrichment R. On to B10, for which the binding signal is 0.374 enrichment R. For B11 the value was 0.465 enrichment R; for B12, 0.405 enrichment R; for B13, 0.534 enrichment R. For B14 the value was 4.58 enrichment R.
